Reference: PubChem BioAssay (NCI)
Several values for one entry are separate records, joined by “and”; a condition that tells them apart may be missing. Equal values may be shown once.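 Test compounds were applied to cells in 96-well plates for 48 hours at 5 doses. At the GI50, growth is halved. TGI: total growth inhibition.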

System: NCI-H322M lung
Assay: NCI tumour cell line growth inhibition, 48 h

| SMILES | GI50 | TGI |
| --- | --- | --- |
| COc1ccc2c(c1)c(-c1nc(-c3c[nH]c4ccncc34)cs1)cn2C | 1.69 µM | 3.08 µM |
| CC1CC[P+](c2ccccc2)(c2ccccc2)c2c1ccc1ccccc21 (stereo not drawn) | 15.3 µM | 75.3 µM |
| O=C1N2Cc3c4ccc5c3CN3C(=O)N6Cc7c(ccc(c7CN1C6(c1ccccc1)C23c1ccccc1)OCCOCCNCCOCCO4)OCCOCCNCCOCCO5 (stereo not drawn) | – | > 100 µM |
| CC(O)(P(=O)(O)O)P(=O)(O)OCC(O)CN1CCOCC1 (stereo not drawn) | – | > 100 µM |
| NCCCC[C@@H]1NC(=O)[C@H](CC(=O)O)NC(=O)CNC(=O)[C@H](CCCN=C(N)N)NC(=O)[C@@H](N)CSSC[C@@H](C(=O)O)NC(=O)[C@H](CC(=O)O)NC(=O)[C@@H]2CCCN2C(=O)CNC1=O | > 100 µM | > 100 µM |
| O=C(/C=C/c1ccccc1F)c1ccc(Cl)c(Cl)c1 | – | > 100 µM |
| CC1=C(c2ccccc2)C(O)(c2ccccc2)C(C)C1=O (stereo not drawn) | 23.5 µM | > 100 µM |
| CC(=O)Oc1c(N2CCCCC2)c(C(=O)c2ccccc2)c(O)c2ccn(N(C)C)c12 | – | 26.6 µM |
| CC1CC/C(=C\c2ccc(F)cc2)C(=O)/C1=C/c1ccc(F)cc1 (stereo not drawn) | – | 20.4 µM |
| CN(c1ccc(C(=O)c2ccc(N(C)S(C)(=O)=O)cc2)cc1)S(C)(=O)=O | – | > 100 µM |
| C=C(NC(=O)C(=C)NC(=O)c1csc(C2=NC3c4csc(n4)C4NC(=O)c5csc(n5)C(C(C)(O)C(C)O)NC(=O)C5CSC(=N5)/C(=C/C)NC(=O)C(C(C)O)NC(=O)c5csc(n5)C3(CC2)NC(=O)C(C)NC(=O)C(=C)NC(=O)C(C)NC(=O)C(C(C)CC)NC2C=Cc3c(C(C)O)cc(nc3C2O)C(=O)OC4C)n1)C(N)=O (stereo not drawn) | – | 36.8 µM |
| O=C1CC(c2cccc(F)c2)Nc2cc3c(cc21)OCO3 (stereo not drawn) | < 0.01 µM | > 100 µM |
| OC(COC(c1ccccc1)(c1ccccc1)c1ccccc1)C(O)CC1SCCS1 (stereo not drawn) | – | 54.4 µM |
| Nc1ccc(C(=O)N/C(=C\c2cccc([N+](=O)[O-])c2)c2nc3[nH]c(=S)[nH]c(=O)c3[nH]2)cc1 | – | > 100 µM |
| C=C(C)COC1CCCCO1 (stereo not drawn) | – | > 100 µM |
| O=C(c1ccccc1)C1S(=O)(=O)OCCOS1(=O)=O | – | > 100 µM |
| COc1cc2c(c(O)c1OC)CC1CCC(=O)N1C2c1cccc2ccccc12 (stereo not drawn) | – | > 100 µM |
| CNC(=O)c1cc(Oc2ccc(NC(=O)Nc3ccc(Cl)c(C(F)(F)F)c3)c(F)c2)ccn1 | 3.55 µM and 3.16 µM | 12.4 µM and > 10 µM |
| COc1ccc2c(c1)nc(C(=O)c1ccco1)c(C(F)(F)F)[n+]2[O-] | > 100 µM | > 100 µM |
| COc1cc2c3c(n(C)c(=O)c2cc1OC)-c1cc2c(cc1/C3=C\CCCI)OCO2 | – | > 100 µM |
| O=c1[nH]cc(Cl)c(=O)[nH]1 | – | > 100 µM |
| CCCCCCCCCCCCCC[N+](C)(C)CCCCCCCCCCCCCC | 12.6 µM | 75.6 µM |
| CCOC(=O)Oc1cc2c(c(OC)c1OC)-c1ccc(OC)c(=O)cc1C(NC(C)=O)CC2 (stereo not drawn) | – | 24 µM |
| Cc1n[nH]c(=O)n1/N=C\c1ccccc1 | – | > 100 µM |

| SMILES | GI50 | TGI |
| --- | --- | --- |
| O=S(=O)(O)c1cc(O)c(N=Nc2ccc(O)cc2O)c2ccccc12 | – | > 100 µM |
| COc1c2c(c3ccccc3c1O)C1C=CC2C1 (stereo not drawn) | – | 30.7 µM |
| CN(CCNC(=O)c1cn(C)c2c1ccc1cc(Cl)c(Cl)cc12)CCNC(=O)c1cn(C)c2c1ccc1cc(Cl)c(Cl)cc12 | – | 3.7 µM |
| CCCCCCCCCCCCCCCCOP(=O)(O)OCC(N)C(=O)O (stereo not drawn) | – | 66.8 µM |
| CC(=O)Oc1c2c(c3n(c1=O)CCCC3)C(=O)N(c1ccccc1)C2=O | – | > 100 µM |
| Cc1cccc(C)c1NC(=O)C1=NC(=S)NC(c2ccccc2)C1c1nc2ccccc2s1 (stereo not drawn) | – | > 100 µM |
| CC(C)(C)c1cc(OCc2nn3c(Cc4ccccc4)nnc3s2)c(Cl)cc1OCc1nn2c(Cc3ccccc3)nnc2s1 | – | > 100 µM |
| CCC(C)[C@H](NC(=O)Nc1cc(C(F)(F)F)cc(C(F)(F)F)c1)C(=O)N[C@@H](Cc1cn(C)cn1)C(=O)OC (stereo partly drawn) | 1.31 µM | 1.97 µM |
| NC(=O)c1ccccc1[N+](=O)[O-] | – | > 100 µM |
| COc1ccc(CN2c3ccccc3Sc3ccccc32)c(C(F)(F)F)c1 | 12.5 µM | > 100 µM |
| CCOC(=O)C(Cc1c[nH]c2cc([N+](=O)[O-])ccc12)NS(=O)(=O)c1ccc2ccccc2c1 (stereo not drawn) | – | 50.7 µM |
| c1ccc2c3c([nH]c2c1)[C@H]1C2CCCCN2CN1CC3 (stereo partly drawn) | – | > 100 µM |
| C=C/C=C/[C@@H](O)CC(=C)C[C@H]1OC2[C@H](C)[C@@H](OC(=O)C[C@H]3C[C@H](OC(C)=O)C[C@@]4(C[C@@](C)(O)C[C@H](CC(=C)[C@@H](C)[C@H](OC(C)=O)[C@H](C)C(=O)C[C@@H]5C[C@H](OC)CC6(C[C@@H](O)C[C@H](/C=C\CCC[C@H]7O[C@](O)(C=C[C@H]7C)[C@H]2O)O6)O5)O4)O3)[C@@H]1O | 0.00361 µM and 0.0025 µM | > 25 µM |
| CCOC(=O)C(NC(=O)c1ccccc1)(N1CCN(c2cc3c(cc2F)c(=O)c(C(=O)O)cn3CC)CC1)C(F)(F)F (stereo not drawn) | – | > 100 µM |
| c1ccc(C2OC3(CCC[C@H]4C[C@H]43)O[C@H]2c2ccccc2)cc1 (stereo partly drawn) | – | > 100 µM |
| Cc1cccc(C2SCc3nc4ccccc4n32)c1 (stereo not drawn) | – | > 100 µM |
| COC(=O)c1ccc(C)cc1CC1Cc2ccc(C)cc2C1=O (stereo not drawn) | – | 95.7 µM |
| COC1=CC(=O)CC(C)C12Oc1c(Cl)c(OC)cc(OC)c1C2=O (stereo not drawn) | – | > 100 µM |
| CCc1ccc(CCC(=O)Nc2ncc(Cc3ccc(Cl)cc3)s2)o1 | 0.656 µM | > 100 µM |
| COc1ccc(/C(COc2ccc3oc(-c4ccccc4)cc(=O)c3c2)=N\O)cc1 | 0.189 µM | 17.4 µM |
| CC(=O)NC(C)(C)C1CCC(C)=C(c2ccccc2)C1 (stereo not drawn) | – | > 100 µM |
| O=C(CC1OC(O)C(Cl)=C1Cl)c1cccnc1 (stereo not drawn) | – | > 100 µM |
| CCCCCCCCCCCC[C@@H](O)[C@H]1CCC([C@H](O)CCCCC(=O)CCCCCCCC2=C[C@H](C)OC2=O)O1 (stereo partly drawn) | – | > 50 µM |
| CCc1cccc(C)c1NC(=O)C(=O)CC(=O)c1ccc(Cl)s1 | – | > 100 µM |

| SMILES | GI50 | TGI |
| --- | --- | --- |
| CCOC(=O)C(Cc1ccc(OC(=O)OC(C)(C)C)cc1)NC(=O)OC(C)(C)C (stereo not drawn) | – | > 100 µM |
| O=C(Nc1cccc(O)c1)c1ccc(NC2=C(Cl)C(=O)N(Cc3ccc(Cl)cc3Cl)C2=O)cc1 | 5.12 µM | 15.8 µM |
| N/C(=N\N=C\c1ccc(C(F)(F)F)cc1)NO | – | > 100 µM |
| CCC(C)Nc1ccc(N)cc1 (stereo not drawn) | 7.51 µM | > 100 µM |
| CC(=O)Nc1c(Nc2ccccc2)[nH]c(C)nc1=S | – | > 100 µM |
| COc1cc(OC)c2c3c(OC)cc(OC)c4c(=O)c(O)c(C[C@@H](C)O)c(c5c(C[C@@H](C)O)c(O)c(=O)c1c25)c43 | – | > 100 µM |
| Cc1ccc(C(=O)Nc2ccc(CP(=O)(O)O)cc2CP(=O)(O)O)cc1NC(=O)Nc1cc(C(=O)Nc2ccc(CP(=O)(O)O)cc2CP(=O)(O)O)ccc1C | – | > 100 µM |
| CC1=C(C(=O)Nc2ccccc2)C(c2cccc3ccccc23)C(C(=O)Nc2ccccc2)=C(C)N1 | – | > 100 µM |
| COc1ccc(C/C(=C(\C)c2ccc(OCCN3CCCC3)cc2)c2ccc(OCCN3CCCC3)cc2)cc1 | 2.02 µM | 4.96 µM |
| COC(=O)C1=C(O)[C@H](C(=O)OC)C2(O)C(C(=O)OC)[C@H](c3ccc(OC(=O)C(C)c4ccc(CC(C)C)cc4)cc3)C[C@@H]1[C@@H]2C(=O)OC (stereo partly drawn) | 22.6 µM | > 50 µM |
| COC(=O)c1ccc(CN2C(=O)C(Cl)=C(Nc3cccc(Cl)c3C)C2=O)cc1 | 26.4 µM | > 100 µM |
| Nc1nc([Se])c2ncn(C3OC(CO)C(O)C3O)c2n1 (stereo not drawn) | 20.9 µM | > 100 µM |
| COc1ccc(N=NC(=O)NC(CC(C)C)C(N)=O)cc1 (stereo not drawn) | – | > 31.6 µM |
| Clc1cccc(NN=Nc2ccc(-c3nc4ccccc4s3)cc2)c1 | – | > 100 µM |
| NNC(=S)NCCNC(=S)NN | – | > 100 µM |
| O=C(N/N=C\c1ccc(N(CCCl)CCCl)cc1[N+](=O)[O-])c1cccnc1 | > 100 µM | > 100 µM |
| O=S(=O)(NNc1ccccc1)c1ccccc1 | – | > 100 µM |
| Cc1c(N=Nc2ccccc2)c(C)n(C2OC(CO)C(O)C(O)C2O)c(=S)c1C#N (stereo not drawn) | – | > 100 µM |
| O=C(O)[C@H](NS(=O)(=O)c1ccc(F)cc1)c1ccccc1 | – | > 100 µM |
| Cc1cc2c(cc1Cl)S/C(=C/C(=O)O)C(Nc1ccc3ncsc3c1)=NS2(=O)=O | 21.4 µM | > 52.4 µM |
| O=C(N=c1ccc2nc(=O)[nH]n(O)c-2c1)C(F)(F)F | – | > 100 µM |
| COc1cc(/C=N/Nc2ncnc3c2cnn3-c2ccccc2)ccc1O | > 18 µM | > 25 µM |
| CC(=O)c1c2c(cc3c1CC1(C3)Cc3cc4c(c(C(C)=O)c3C1)CCC4)CCC2 | – | > 100 µM |
| COc1ccc(C2C(C#N)=C(S)N(C3OC(COC(C)=O)C(OC(C)=O)C(OC(C)=O)C3OC(C)=O)C(c3ccccc3)=C2C(C)=O)cc1 (stereo not drawn) | – | > 100 µM |

| SMILES | GI50 | TGI |
| --- | --- | --- |
| COCN1COCN=C1NC#N | – | > 100 µM |
| CC(C)(C)c1ccc(Oc2ccc(N)cn2)cc1 | > 100 µM | > 100 µM |
| NC(CCOCCP(=O)(O)O)C(=O)O (stereo not drawn) | – | > 100 µM |
| O=C(O)c1cnc(-n2[nH]c3c(c2=O)CCCC3)[nH]c1=O | – | > 100 µM |
| N=c1c2c(=S)n(-c3ccccc3)c(=S)n(-c3ccccc3)c2nc(SCCN2CCCC2)n1-c1ccccc1 | – | 24 µM |
| S=c1[nH]n2c(CCCCCCCCc3nnc4sc(=S)[nH]n34)nnc2s1 | – | > 100 µM |
| O=C1C(c2ccc(Br)cc2)=[N+]([O-])c2ccccc21 | – | 39.7 µM |
| O=C(CCC=C(S(=O)(=O)c1ccccc1)S(=O)(=O)c1ccccc1)c1ccccc1 | – | 25.6 µM |
| COc1ccc2c3c([nH]c2c1[N+](=O)[O-])C(C)N(Cc1ccccc1)CC3 (stereo not drawn) | – | > 100 µM |
| O=C(/C=C/c1cccc(Oc2ccccc2)c1)NCc1ccc(C(=O)NCCc2ccccc2)cc1 | – | > 100 µM |
| CC(C)=CCc1[nH]c2ccccc2c1C1=C(O)C(=O)C(c2c(CC=C(C)C)[nH]c3ccccc23)=C(O)C1=O | – | 14.6 µM |
| CN(C)C(=N/O)/C(=N\O)N(C)C | – | > 100 µM |
| COc1cccc(CC(C)=C(c2ccc(OCCN3CCCCC3)cc2)c2ccc(OCCN3CCCCC3)cc2)c1 | 1.88 µM | 3.73 µM |
| COc1ccc(Cc2coc3ccccc3c2=O)cc1OC | – | > 100 µM |
| CSc1ccn(C2CC(F)C(CO)O2)c(=O)n1 (stereo not drawn) | – | > 100 µM |
| NCC(O)CNC(=O)c1ccc(-c2ccc(-c3ccc(C(=O)NCC(O)CN)cc3)o2)cc1 (stereo not drawn) | – | 44.2 µM |
| O=C1CC(c2ccccc2)=Nc2ccccc2N1 | – | > 100 µM |
| O=[N+]([O-])C=C(c1ccc(Cl)cc1)c1ccc(Cl)cc1 | – | 30.7 µM |
| Cc1ccc(/C=N/Nc2nc(Nc3ccccc3)nc(-n3nc(C)cc3C)n2)cc1 | 4.26 µM | 64.9 µM |
| Cc1ccc(S(=O)(=O)SC(C)(C)C)cc1 | – | > 100 µM |
| COc1c(-c2nc3nc(N4CCN(C)CC4)ccc3[nH]2)cc(OC)c2c1nc(COC(C)=O)n2C | – | > 100 µM |
